The campaign covered roughly 310,000 compounds. About 2,200 (0.71%) showed an effect of 50% or more. The effect is printed as a negative number. Some of the results follow.

human ether-à-go-go-related gene (hERG) potassium channel, sequence (Q12809 whole entry, looked up): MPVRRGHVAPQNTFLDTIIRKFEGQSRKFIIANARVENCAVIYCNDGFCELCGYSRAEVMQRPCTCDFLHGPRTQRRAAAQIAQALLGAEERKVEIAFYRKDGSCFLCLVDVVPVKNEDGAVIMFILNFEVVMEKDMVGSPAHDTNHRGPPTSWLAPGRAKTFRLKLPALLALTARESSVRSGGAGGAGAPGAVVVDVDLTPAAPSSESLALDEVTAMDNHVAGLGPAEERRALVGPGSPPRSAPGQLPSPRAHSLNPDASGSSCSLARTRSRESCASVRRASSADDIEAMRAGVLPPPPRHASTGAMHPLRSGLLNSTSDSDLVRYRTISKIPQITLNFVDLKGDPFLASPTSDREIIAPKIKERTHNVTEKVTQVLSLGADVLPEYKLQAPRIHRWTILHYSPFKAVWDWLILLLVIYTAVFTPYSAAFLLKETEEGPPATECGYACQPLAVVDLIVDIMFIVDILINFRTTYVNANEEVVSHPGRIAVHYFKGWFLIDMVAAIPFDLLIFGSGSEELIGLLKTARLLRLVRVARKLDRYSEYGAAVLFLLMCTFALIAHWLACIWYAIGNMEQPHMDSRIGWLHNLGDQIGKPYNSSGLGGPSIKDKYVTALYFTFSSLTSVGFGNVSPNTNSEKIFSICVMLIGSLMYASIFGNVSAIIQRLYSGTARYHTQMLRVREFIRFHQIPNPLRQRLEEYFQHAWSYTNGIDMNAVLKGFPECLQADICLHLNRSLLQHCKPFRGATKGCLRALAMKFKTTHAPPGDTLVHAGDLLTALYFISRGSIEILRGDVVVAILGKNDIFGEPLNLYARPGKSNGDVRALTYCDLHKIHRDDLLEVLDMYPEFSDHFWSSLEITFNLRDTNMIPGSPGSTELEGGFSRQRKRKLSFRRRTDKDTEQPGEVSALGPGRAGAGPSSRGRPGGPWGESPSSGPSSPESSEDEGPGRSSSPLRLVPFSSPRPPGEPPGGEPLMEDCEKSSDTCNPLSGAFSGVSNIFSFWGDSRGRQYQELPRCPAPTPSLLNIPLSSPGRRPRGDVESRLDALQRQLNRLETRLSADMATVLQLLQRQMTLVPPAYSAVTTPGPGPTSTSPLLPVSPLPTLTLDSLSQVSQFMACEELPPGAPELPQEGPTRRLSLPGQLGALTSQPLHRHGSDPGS

The assay has as its target human ether-à-go-go-related gene (hERG) potassium channel (human, UniProt Q12809). Kind of assay: primary screen, population patch clamp on CHO cells stably expressing hERG.
With `COC(=O)c1sc(N)c(C(=O)OC)c1CSc1nnnn1C`, the “hERG current change (%, negative = inhibition) at 1uM” value is given as -6.31%. Next, `NC(=O)c1ccc(-c2nnn(CC(=O)N(C3CCCCC3)C3CCS(=O)(=O)C3)n2)cc1` (centres unmarked): 9.79%. Take `Cc1ccc(C(C)C)c(OCCN2CCc3ccccc3C2)c1.Cl`: the “hERG current change (%, negative = inhibition) at 1uM” value turned out to be 16.1%. Then `CCCOc1ccc(Cc2c(Cl)nc(SC)nc2NC)cc1`, with 10.6%. Consider `COc1ccc2cc(C#N)c(Nc3cccc(F)c3)nc2c1`, for which the “hERG current change (%, negative = inhibition) at 1uM” value is reported as 11.7%. On to `Cc1ccc(NC(=S)N/N=C/c2c(C)nn(-c3ccccc3)c2N2CCCC2)cc1`, for which the “hERG current change (%, negative = inhibition) at 1uM” value was 16.3%. Then `O=C(Oc1c(-c2ccccc2)c(=O)n2c3c(cccc13)CC2)c1cccc([N+](=O)[O-])c1`, with 9.63%; and `CCOC(=O)c1sc(N2N=C(C)/C(=C\c3ccc(OCC(=O)OC)cc3)C2=O)nc1C`, with 19%. For the compound `Cc1ccc(NS(=O)(=O)c2ccc3c(c2)NC(=O)CCS3)c(Br)c1`, the “hERG current change (%, negative = inhibition) at 1uM” value is recorded as 8.73%. Next, `O=S(=O)(/N=C(/Nc1ccc(F)cc1F)c1ccccc1)c1ccc(Br)cc1`: 8.34%. Then `O=C(O)c1ccc(NS(=O)(=O)c2cccc3nsnc23)cc1`, with 5.69%; and `Cc1ccc(CCCOC(=O)C[N+]2(C)CCCCC2)cc1.[I-]`, with 3.78%. `O=C(Nc1ncc(Br)s1)C(Cc1ccccc1)n1cccc1` (centres unmarked): the “hERG current change (%, negative = inhibition) at 1uM” value was 11.5%. Next, `Cc1nc2ccccc2c(=O)n1/N=C/c1ccc2ccccc2c1O`: 4.82%; `COc1ccccc1CNC(=O)c1sccc1-c1ccccc1`: 11.2%. Then `CN(Cc1nc(-c2cnccn2)no1)Cc1n[nH]c2c1CCCCC2`, with 11.1%; and `C=C1CCN([C@@H](CC(C)C)C(=O)NCc2ccco2)S(=O)(=O)c2ccccc21`, with 9.17%.

For the compound `COc1ccc(-c2noc(CN3C(=O)c4ccccc4C3=O)n2)cc1`, the “hERG current change (%, negative = inhibition) at 1uM” value was found to be 2.83%. Then `CC(C)CNC(=S)N1CCC(NC(=O)c2ccco2)CC1`, with 6.82%; and `O=C(O)c1cc2nc(-c3ccccc3)cc(C(F)(F)F)n2n1`, with 6.73%; and `COC(=O)C1=C(C)N(CCc2ccc(OC)c(OC)c2)C(=O)/C1=C\c1ccc(O)cc1`, with 6.71%.

As to `Cc1cc(C(=O)CSc2nncs2)c(C)n1-c1ccc2c(c1)OCO2`, the “hERG current change (%, negative = inhibition) at 1uM” value came to 9.18%. As for `CC(=O)C1=C(O)CC(c2ccccc2)CC1=NCCc1c(C)[nH]c2ccc(C)cc12` (centres unmarked), the “hERG current change (%, negative = inhibition) at 1uM” value is on record as -2.68%. Then `COc1ccc(OCC(O)CNC(=O)Nc2ccc(C(C)(C)C)cc2)cc1` (centres unmarked), with 0.173%; and `COc1cc(/C=C/C(=O)OCC(=O)N2CCC(C)CC2)ccc1O`, with 5.87%; and `COC(C(=O)Nc1ccnn1C1CCN(Cc2ccc(C)s2)CC1)c1ccccc1` (centres unmarked), with 6.46%. Then `CCOC(=O)C1CCN(C(=O)COC(=O)c2ccc(=O)n(Cc3ccccc3)n2)CC1`, with 0.035%; and `Cc1cc(C)c(C)c(S(=O)(=O)N2CCN(CC(=O)c3c(N)n(Cc4ccccc4)c(=O)n(C)c3=O)CC2)c1C`, with 0.288%. Take `CCCCOc1ccc(-c2ncc([N+](=O)[O-])cn2)cc1`: the “hERG current change (%, negative = inhibition) at 1uM” value came to 6.4%. On to `O=C(O)CCC(=O)N1CC=C(c2ccccc2)CC1`, for which the “hERG current change (%, negative = inhibition) at 1uM” value is given as 14.5%. Then `CCCCCn1c(=NC(=O)c2ccco2)c(C(=O)OCC)cc2c(=O)n3ccccc3nc21`, with -30.9%; and `CCc1ccn2cc(-c3cc(-c4ccccc4)no3)nc2c1`, with 11.8%; and `O=C(Nc1ccccc1C(=O)N/N=C/c1ccco1)c1ccc(Cl)cc1`, with 11.3%. As to `CCOC(=O)c1c(Cc2ccccc2)c[nH]c1C`, the “hERG current change (%, negative = inhibition) at 1uM” value came out at 9.38%. Then `O=C(O)C(=O)O.c1ccc2c(c1)CCN(C1CCCCC1)C2`, with 6.77%. Then `Cc1ccc(OCC(=O)Nc2ccc(CN3CCOCC3)cc2)cc1C`, with -14.9%. Then `CCC(C)NS(=O)(=O)c1ccc(S(=O)(=O)N2CCCC3(CCCCC3)C2)cc1` (centres unmarked), with 7.81%; and `COc1ccccc1-c1cc(-c2ccccc2)nc(=O)[nH]1`, with 9.21%; and `COc1ccc(S(=O)(=O)n2nc(OC(=O)c3ccco3)cc2N)cc1`, with 19.6%. For the compound `COc1ccccc1/C=C/CN1CCC(Oc2cc(C(=O)NC3CC3)ccc2OC)CC1`, the “hERG current change (%, negative = inhibition) at 1uM” value is given as -78.3%. Consider `O=C(O)c1cccc(NC(=O)c2ccc3c(c2)C(=O)N(Cc2ccco2)C3=O)c1`, for which the “hERG current change (%, negative = inhibition) at 1uM” value was found to be 16.5%. For `CCCCOc1ccccc1NC(=O)c1ccco1`, the “hERG current change (%, negative = inhibition) at 1uM” value is given as 1.86%. `N#Cc1ccc(-c2ccc(Cl)cc2)nc1Oc1ccc(F)cc1`: the “hERG current change (%, negative = inhibition) at 1uM” value is recorded as 10.2%. Then `COc1ccc(-n2c(SCC(=O)Nc3ccc(NC(C)=O)cc3)nc3ccccc3c2=O)cc1`, with 16.8%; and `CC(=O)c1cccc(CN2CCCCC2C(=O)Nc2ccc(Oc3ccccc3)nc2)c1` (centres unmarked), with 0.714%; and `O=S(=O)(c1ccc(F)cc1)N1CCCN(c2nccc(C(F)(F)F)n2)CC1`, with 7.57%.

For `COc1ccc(CNn2cnnc2)c(O)c1`, the “hERG current change (%, negative = inhibition) at 1uM” value is reported as 15.8%. Next, `CCCCN(CC)S(=O)(=O)c1ccc(C(=O)N=c2sc3cc(NC(C)=O)ccc3n2C)cc1`: 14.5%. Next, `O=C(Nc1nnc(C2=COCCO2)o1)c1ccc(S(=O)(=O)N2CCCCC2)cc1`: 16.4%; `COc1ccc(NC(=S)NC(NC(=O)C(C)C)C(Cl)(Cl)Cl)c([N+](=O)[O-])c1` (centres unmarked): 8.63%; `Cc1cccc(CSc2ccc3nnc(-c4cccs4)n3n2)c1`: 5.73%. As to `O=C(Oc1ccccc1Cl)c1ccc(-n2cncn2)nc1`, the “hERG current change (%, negative = inhibition) at 1uM” value amounted to 16.3%. In the case of `CCN(CC(=O)Nc1ccc(C)c(S(=O)(=O)N(C)C)c1)Cc1ccccc1.O=C(O)C(=O)O`, the “hERG current change (%, negative = inhibition) at 1uM” value was 2.49%.

As to `Cc1cc(Cl)c2oc(C(=O)N3CCN(C(=O)c4ccco4)CC3)c(C)c2c1`, the “hERG current change (%, negative = inhibition) at 1uM” value worked out at 7.14%.

With `COc1ccc(-c2noc(CN(C)Cc3ccccc3)n2)c(OC)c1OC`, the “hERG current change (%, negative = inhibition) at 1uM” value is reported as 12.9%. With `CC(C)n1c(SCC(=O)Nc2nc3c(s2)CCCC3)nc2c1c(=O)n(C)c(=O)n2C`, the “hERG current change (%, negative = inhibition) at 1uM” value was 5.51%. Then `NC(=O)c1ccc[n+](CC(=O)c2ccc(Br)cc2)c1.[Br-]`, with 13.7%. Then `Cc1nnc(N/N=C/c2cccs2)[nH]c1=O`, with 2.15%; and `O=C(CN1CCCc2ccccc21)N/N=C/c1ccc(F)cc1F`, with 9.8%. Then `CSc1nc2sc3c(c2c(=S)[nH]1)CC(C)(C)OC3`, with 15.1%; and `CCC(C)(C)NC(=O)/C=C/c1ccccc1[N+](=O)[O-]`, with 5.36%. Consider `Cc1nn2c(-c3cccnc3)ccnc2c1-c1ccccc1`, for which the “hERG current change (%, negative = inhibition) at 1uM” value turned out to be 15.6%.

On to `CC(OC(=O)c1ccc(S(=O)(=O)NCc2ccco2)cc1)C(=O)Nc1ncc(Cl)cc1Cl` (centres unmarked), for which the “hERG current change (%, negative = inhibition) at 1uM” value is reported as 17%. Then `CCCNC(=O)OC[C@H]1O[C@H](CCO/N=C/C[C@@H]2C=C[C@H](OC(C)=O)[C@@H](COC(C)=O)O2)C=C[C@@H]1Oc1ccc(OC)cc1`, with -12.8%; and `O=C(CSCc1ccc([N+](=O)[O-])cc1)NC1CC1`, with -7.58%. Next, `CCCCc1ccc(NC(=S)NCCc2ccc(S(N)(=O)=O)cc2)cc1`: 12.2%; `Cc1cc2c(s1)NC(=O)CN=C2c1cccs1`: 22%; `CC1Sc2ccc(S(=O)(=O)NCCc3ccccc3)cc2NC1=O` (centres unmarked): 8.96%. Then `Cc1ccc(OCCOCCOc2cccc3cccnc23)c(Br)c1`, with 5.75%. As to `COC(=O)c1cccc(Cn2cc([N+](=O)[O-])cn2)c1`, the “hERG current change (%, negative = inhibition) at 1uM” value is listed as 4.93%.

On to `COc1cc2cc(CN(CCN3CCOCC3)C(=O)Nc3ccc(F)cc3)c(=O)[nH]c2cc1OC`, for which the “hERG current change (%, negative = inhibition) at 1uM” value is given as 13.4%. Next, `O=C1NC(c2ccc(Br)cc2)Nc2sc3c(c21)CCC3` (centres unmarked): -7.92%. Next, `O=C(O)c1ccc(NS(=O)(=O)c2cccc(S(=O)(=O)c3ccc(Cl)c(Cl)c3)c2)cc1`: 5.71%; `NC(=O)C1CCN(S(=O)(=O)c2cccc(C(=O)O)c2)CC1`: 10.4%. Then `O=[N+]([O-])c1ccc(Sc2ccc(Cl)c(Cl)c2)nc1`, with -11.9%; and `CCOC(=O)C(=CNc1cccc(C)c1C)C(=O)OCC`, with 18.8%. As for `Cc1cccn2c(=O)c3cc(C(=O)NC4CCCC4)n(C)c3nc12`, the “hERG current change (%, negative = inhibition) at 1uM” value turned out to be 9.12%.

As for `Cc1onc(-c2ccccc2)c1C(=O)N1CCN(C(=O)c2ccco2)CC1`, the “hERG current change (%, negative = inhibition) at 1uM” value came out at 7.56%. Turning to `COc1ccc(C2CC(c3ccccc3)=NN2C(=O)COC(=O)/C=C/c2ccc(O)c(OC)c2)cc1` (centres unmarked), the “hERG current change (%, negative = inhibition) at 1uM” value was 6.56%. Then `O=C(NNC(=O)c1ccc(Cl)c([N+](=O)[O-])c1)c1ccncc1`, with 15.6%; and `Cc1cc(C)cc(C(=O)NCC(=O)OCc2c(C)noc2C)c1`, with -3.93%; and `COc1ccc(CNC(=O)c2cccc3c2C(=O)N(CC2CCCO2)C3)cc1` (centres unmarked), with 6.13%.

As to `Cc1cc(C(=O)NCCCN2CC(C)CC(C)C2)n(-c2ccccc2)n1` (centres unmarked), the “hERG current change (%, negative = inhibition) at 1uM” value was -7.31%. Next, `Cc1ccc(C)c(Cn2nnc3c(=O)[nH]c(C4CCN(S(=O)(=O)c5ccc(S(=O)(=O)N(C)C)cc5)CC4)nc32)c1`: 22.8%. Next, `CCCCSc1nnc(CCNC(=O)OC(C)(C)C)o1`: 9.25%; `CCCCNC(=O)CCC(=O)Nc1ccc2nc(N3CCCCC3)cc(C)c2c1`: 4.27%.
